Patent US7271245B2, “Methods and compositions for inhibition of metastasis” (The Scripps Research Institute, priority 2004, dated 2007)

Tested on: integrin αvβ3
Assay: Flow cytometry, scFv binding to human tumor cell panel
Protocol: FIGS. 1A, 1B, 1C. Patient derived scFvs Bc-12 and Bc-15 recognize tumor cell integrin αvβ3 in a cation and activation dependent manner. Flow cytometric analyses in TBS with or without 1 mM Ca^2+, 1 mM Mg^2+, or 0.2 mM Mn^2+ as indicated. Binding of soluble scFv detected after incubation with anti-Flag M2 murine mAb followed by FITC-anti mouse F(ab′)2. (A) scFv binding to human melanoma cells (M21: αvβ3 plus other αv integrins) (M21-LIIb: αIIbβ3, no αv integrins) or lung adenocarcinoma cells (UCLA-P3: αv integrins, no β3 integrin). (B) scFv binding to M21 melanoma cells. (C) scFv binding to variants of MDA-MB 435 human breast cancer cells that lack (β^3−) or express αvβ3 either in a non-activated (β3WT, ParentCo) or activated form (β3D723R, Bone, Lung, and BMS metastatic cancer cells isolated from breast cancer patient blood).
Flow cytometry. scFv binding to human tumor cells was analyzed by flow cytometry, initially with cloned scFv phage and then with purified scFv protein. Per sample, 2×10^5 tumor cells were blocked with goat serum and incubated either with scFv phage (2-5×10^10) (1 h at RT) followed by mouse anti-M13 mAb (Serotec) (30 min on ice) and goat FITC-anti mouse (Pierce) (30 min on ice), or with purified scFv (1.25 to 40 μg/ml, routinely 10 to 15 μg/ml) (45 min on ice), followed by mouse anti-FLAG mAb M2 (Sigma) (30 min on ice) and goat FITC-anti mouse. Binding/washing buffer was TBS with or without divalent cations (1 mM Ca^2+, 1 mM Mg^2+, 0.2 mM Mn^2+). Alternatively, tumor cells were washed in 10 ml of plasma (prepared freshly from human blood anticoagulated with 50 nM D-Phe-D-Pro-D-arginyl chloromethyl ketone, PPACK, Felding-Habermann et al., J. Biol. Chem. 271: 5892-5900, 1996), resuspended in plasma and then incubated sequentially, without washing, with purified scFv (45 min on ice), followed by anti-FLAG M2 (30 min on ice) and FITC-anti mouse (30 min on ice). All samples were counter stained with propidium iodide (PI) and analyzed on a Becton-Dickinson FACScan, with live gate set to exclude PI positive cells.
To generate therapeutic reagents that specifically react with activated αvβ3, a phage display library of single chain antibody fragments (scFv) was exploited. This library was derived from cancer patient blood lymphocyte cDNA libraries and allowed us to test the hypothesis that the expressed immune repertoire contains antibodies that recognize integrin αvβ3, and distinguish between its activated and non-activated forms. Mao et al., Proc. Natl. Acad. Sci. U.S.A 96: 6953-6958, 1999. A subtractive panning approach was designed based on variants of MDA-MB 435 human breast cancer cells. […] Apparently, these cells are selected during metastasis, as variant cells isolated from lung and bone metastases in immune deficient mice express constitutively activated αvβ3. To establish a cell population that uniformly expresses non-activated αvβ3, MDA-MB 435 parental cells were cloned by limiting dilution, and clones tested for αvβ3 functionality. […] A cell line, MDA-MB 435 Lung-Lung, was established which expressed αvβ3 in a constitutively activated form. This variant stems from a lung metastase of an immune deficient mouse whose mammary fat pad had been injected with parental MDA-MB 435 cells. Felding-Habermann et al., Proc. Natl. Acad. Sci. U.S.A 98: 1853-1858, 2001; Rolli et al., Proc. Natl. Acad. Sci. U.S.A 100: 9482-9487, 2003. To enrich for the ability to colonize the lung from the blood stream, the Lung variant was subsequently injected intravenously, and tumor cells cultured 3 weeks later from the excised lung. Parent Combo cells were used to subtract the scFv phage library to eliminate antibodies against antigens shared by the MDA-MB 435 cell variants. […]

B1: Bc-15: patient derived human scFv antibody against activated αvβ3 with RGD motif in CDR-H3; cDNA ATCC PTA-6304 (protein)
scFv: MAQVQLVQSGAEVKEPGSSVKVSCKASGGTFSSYAIYWVRQAPGQGLEWMGWINPDSGDTNSAQQFQGRVTMTRDTSISTAYMELSRLRSDDTAMYYCARPPRGDGPDYWGQGTLVTVSSGGGGGS[letters of about 100 residues not shown]RGLGGLVDYKDDDDK
binding in the presence of Mn2+ (0.2 mM Mn^2+): greatly enhanced | binding in the presence of Mg2+ (1 mM Mg^2+, M21 cells): at the same level as Ca^2+ | effect of Ca2+ on Mn2+ enhanced binding (Ca^2+ combined with Mn^2+, M21 cells): reduced the enhancing effect of Mn^2+ | reactivity with human tumor cells that express or lack αvβ3 (M21, M21-LIIb, UCLA-P3 cells, flow cytometry): reacted only with cells expressing the αvβ3 heterodimer | binding to M21-L cells (M21-L cells (no αv integrins)): failed to bind | cation requirement of binding (TBS with or without divalent cations): showed a cation dependence | binding in the presence of Ca2+ (physiological Ca^2+ levels (1 mM)): measurable | reactivity with M21-L4 cells (αvβ3 expression restored by transfection): did react
